Source: PubChem BioAssay AID463173 (ICCB-Longwood Screening Facility, Harvard Medical School, 2010)
The whole screen tested about 52,000 compounds, of which about 4,300 (8.3%) were called active. Rule as the data show it: active = survival mostly below about 52% (no sharp cut-off); inactive = mostly above about 56%. The list shows a part of the results.

The compounds below were run on DeltatarO mutant (assay: growth inhibition of S. aureus wild type versus tarO mutant, primary screen, teichoic acid synthesis inhibitors, RN4220, OD600 (AID 463173)). Conditions: OD600, 18 h, active compounds read low, screened at 18.75 µg/mL (by protocol).
With Cc1ccc(C(=O)Nc2ccc(C(=O)OCc3cc(=O)n4ccsc4n3)cc2)cc1 the survival was inactive: 72%.
CC(C)(C)c1ccc(C2NC(=O)c3n[nH]c(-c4cccs4)c32)cc1 (stereo not drawn) was tested, and the survival was inactive: 73%.
For CCOc1ccc2c(c1)c(=O)c(C(=O)c1ccc(C)cc1)cn2Cc1ccccc1OC, the survival was inactive: 71%.
In the case of CC(=O)c1cccc(NC(=O)N2CCC(CN3CCCCC3)CC2)c1, the survival was inactive: 99%.
CC(C)c1ccc(NC(=O)Cn2c(=O)n(Cc3nc(-c4ccccc4)no3)c(=O)c3cc4c(cc32)OCO4)cc1 was tested, and the survival was inactive: 91%.
With CCOc1ccccc1NC(=O)CN1C(=O)C2(SCC(=O)N2c2ccc(C)cc2)c2ccccc21 (stereo not drawn) the survival was inactive: 67%.
In the case of CCS(=O)(=O)c1ncc(Cl)c(C(=O)N(Cc2ccccc2)c2ccc(OC)cc2)n1, the survival was active: 36%.
In the case of Cc1cc(C)c(CN2C(=O)c3ccccc3S(=O)(=O)c3ccc(C(=O)OCC4CCCO4)cc32)c(C)c1 (stereo not drawn), the survival was inactive: 89%.
In the case of Cc1ccccc1C(c1c(C)n(C)n(-c2ccccc2)c1=O)c1c(C)n(C)n(-c2ccccc2)c1=O, the survival was inactive: 77%.
With CC(C)CCNc1ncnc2c1cnn2-c1cccc(Cl)c1 the survival was inactive: 103%.
In the case of COCCNC(=O)C(=O)NCC(c1cccnc1)N1CCN(c2ccccc2)CC1 (stereo not drawn), the survival was active: 54%.
With Cc1ccc(-n2c(SCC(=O)Nc3c(C)cccc3C)nc(O)c(C)c2=O)cc1 the survival was inactive: 88%.
In the case of CCC1CN(C(=O)N2CCC(C(=O)NCc3ccco3)CC2)c2ccccc2O1 (stereo not drawn), the survival was inactive: 66%.
In the case of Cc1ccccc1OCc1nnc(SCC(=O)N(Cc2ccccc2)C(C)(C)C)o1, the survival was active: 59%.
CCCSc1nnc2n(-c3cccc(C)c3)c(=O)c3c4c(sc3n12)CCCC4 was tested, and the survival was active: 5%.
In the case of Cc1ccc(C)c(NC(=O)Cn2c(=O)n(Cc3ccc4c(c3)OCO4)c(=O)c3ccccc32)c1, the survival was inactive: 87%.
In the case of Cc1cccc(C(=O)OCc2cc(=O)n3nc(-c4cccs4)sc3n2)c1, the survival was inactive: 101%.
Cc1ccc(-n2ncc(C(=O)NCCCN3CCN(C)CC3)c2C2CCN(C(=O)OC(C)(C)C)CC2)c(C)c1 was tested, and the survival was inactive: 105%.
For CC(C)(C)OC(=O)N1CCC(c2c(C(=O)N3CCCCC3)cnn2-c2ccc(F)cc2F)CC1, the survival was inactive: 67%.
Cn1c(Oc2ccccc2)nc2c1c(=O)n(Cc1ccc(Cl)cc1Cl)c(=O)n2C was tested, and the survival was inactive: 71%.
CCc1ccc(NC(=O)c2ccc(F)c(S(=O)(=O)NCCc3ccc(OC)c(OC)c3)c2)cc1 was tested, and the survival was inactive: 72%.
CCCN(Cc1cccs1)C(=O)Nc1ccc(F)c(Cl)c1 was tested, and the survival was inactive: 58%.
With COc1cc(Cl)c(NC(=O)C(NS(=O)(=O)c2cccs2)C(C)C)c(OC)c1 (stereo not drawn) the survival was inactive: 75%.
For COc1ccc(OC)c(Nc2c3c(nc4ccccc24)CCC3)c1, the survival was inactive: 94%.
In the case of CS(=O)(=O)N1CCc2cc(C(=O)Nc3ccc(S(N)(=O)=O)cc3)ccc21, the survival was inactive: 48%.
With O=C1c2ccccc2C(=O)N1c1ccccc1S(=O)C(F)(F)F (stereo not drawn) the survival was inactive: 72%.
COc1cccc(Nc2sc(C(=O)c3ccc(Cl)cc3)c(N)c2C(=O)NCCc2ccc(OC)c(OC)c2)c1 was tested, and the survival was inactive: 101%.
In the case of COc1ccc(Cl)cc1NC(=O)Cn1cnc2sc(C)c(S(=O)(=O)N3CCN(c4ccccc4OC)CC3)c2c1=O, the survival was inactive: 79%.
In the case of Cc1cc2cc(CN(Cc3ccccc3)C(=O)N(C)C)c3nnnn3c2cc1C, the survival was inactive: 84%.
For O=C(CC1Nc2cccc3cccc(c23)NC1=O)Nc1ccc(F)cc1 (stereo not drawn), the survival was inactive: 111%.
For O=C(CCn1cnc2onc(-c3ccc(F)cc3)c2c1=O)N1CCN(c2ccccc2F)CC1, the survival was active: -4%.
With CCOC(=O)C1CCCN(C(=O)c2ccc(NC(=O)c3nsc4ccccc34)cc2)C1 (stereo not drawn) the survival was inactive: 90%.
In the case of Cc1ccc2c(CC(=O)N(Cc3cccc(Cl)c3)C3CCS(=O)(=O)C3)coc2c1 (stereo not drawn), the survival was inactive: 68%.
With Cc1ccc(C(=O)CC2(O)C(=O)N(Cc3ccccc3)c3ccccc32)c(C)c1 (stereo not drawn) the survival was active: 41%.
CNS(=O)(=O)c1cn(CC(=O)N2CCN(c3ccccc3OC)CC2)cc1S(=O)(=O)NC was tested, and the survival was inactive: 72%.
With COC(=O)c1ccccc1NC(=O)Cn1c(=O)cc(C)c2c(C)nn(-c3cccc(Cl)c3C)c21 the survival was inactive: 86%.
For O=C(Nc1nnc(S(=O)(=O)N2CCc3ccccc32)s1)c1ccccc1Cl, the survival was active: 20%.
For Cc1c2cnn(CC(=O)N3CCN(c4ccc(F)cc4)CC3)c(=O)c2c(C)n1Cc1ccccc1F, the survival was inactive: 61%.
For Cc1cc(C)cc(-n2ccnc2SCC(=O)Nc2nc3ccc(C)cc3s2)c1, the survival was active: 52%.
For COc1ccc(-c2nc(Cn3c(=O)cc(C)c4c(C)nn(-c5ccccc5)c43)c(C)o2)c(OC)c1, the survival was inactive: 94%.
With CN(C)c1ccc(CNC(=O)Cn2ccc3cc(S(=O)(=O)N4CCCCCC4)ccc32)cc1 the survival was inactive: 88%.
For Cc1ccc2c(c1)C(c1ccc(F)cc1)N(C(=O)c1cccc(C(F)(F)F)c1)CC(=O)N2 (stereo not drawn), the survival was inactive: 141%.
With COc1cccc(N2CCN(Cc3cc(=O)oc4cc(C)ccc34)CC2)c1 the survival was inactive: 70%.
